Laboratory results reported in patent publication EP4671282A1 (Jiangsu Hengrui Pharmaceuticals Co., Ltd., dated 2025).
Positions count from the first letter of the chain named. Names may count otherwise. Where two headings read alike, the source gives them in different places.

T1: human IL-36R full-length protein stably expressed on CHO-K1 cells (human, UniProt Q9HB29 20-575)
T1 construct: FlpIn CHO-K1 line expressing the full-length protein; also called human IL-36R on the surface of CHO-K1 cells; CHO-K1 cells overexpressing human IL-36R
T1 sequence: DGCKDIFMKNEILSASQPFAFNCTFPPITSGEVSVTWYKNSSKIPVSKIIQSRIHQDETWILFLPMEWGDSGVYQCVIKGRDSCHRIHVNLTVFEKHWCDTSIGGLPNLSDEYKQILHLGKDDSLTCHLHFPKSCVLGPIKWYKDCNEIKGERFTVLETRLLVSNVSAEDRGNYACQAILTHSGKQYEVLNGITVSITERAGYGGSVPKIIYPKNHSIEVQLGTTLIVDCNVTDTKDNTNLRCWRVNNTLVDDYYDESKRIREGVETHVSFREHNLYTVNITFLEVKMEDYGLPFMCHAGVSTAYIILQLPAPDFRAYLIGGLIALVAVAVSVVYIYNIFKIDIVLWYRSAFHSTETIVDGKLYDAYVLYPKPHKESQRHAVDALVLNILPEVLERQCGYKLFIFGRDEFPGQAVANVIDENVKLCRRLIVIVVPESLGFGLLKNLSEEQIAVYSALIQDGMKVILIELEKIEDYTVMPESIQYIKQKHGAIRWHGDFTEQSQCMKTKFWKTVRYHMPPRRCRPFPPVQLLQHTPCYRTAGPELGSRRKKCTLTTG

T2: IL-36R on human skin squamous cell line A431 (human, UniProt Q9HB29 20-575)
T2 sequence (looked up): T1 sequence

T3: Human IL-36R protein (His + Avi Tag), Kactus IL1-HM4L2 (human, UniProt Q9HB29 20-335)
T3 construct: Bought protein; also called human IL-36R antigen protein; Human IL-36R antigen
T3 sequence: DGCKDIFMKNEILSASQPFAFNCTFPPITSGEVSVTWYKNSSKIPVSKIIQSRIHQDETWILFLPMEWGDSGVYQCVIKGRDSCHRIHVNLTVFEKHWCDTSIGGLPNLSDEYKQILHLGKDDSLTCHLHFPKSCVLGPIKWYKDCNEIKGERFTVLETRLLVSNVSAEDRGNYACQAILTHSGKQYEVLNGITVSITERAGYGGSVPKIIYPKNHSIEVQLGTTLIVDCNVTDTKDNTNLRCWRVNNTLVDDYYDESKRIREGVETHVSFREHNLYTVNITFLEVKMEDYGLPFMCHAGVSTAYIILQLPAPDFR

B1: VHH213_Hu01 VHH-Fc antibody (human IgG4 Fc, S228P) (Fc fusion)
chain: EVQLVESGGGLVQPGGSLRLSCAASGNTYSRYCMGWFRQAPGKELVGVAAIDSDGDTSYADSVEGRFTISKDNAKNTLYLQMNSLRAEDTAVYYCAADFTPSAPPRMGSGGYCFGDYWGQGTLVTVSS[sequence of human IgG4 Fc with S228P (EU numbers) omitted]
notes: VHH linked to human IgG4 Fc (hinge, S228P); no linker is named
B2: VHH213 VHH-Fc antibody (human IgG4 Fc, S228P) (Fc fusion)
chain: B1 chain with L11S, P14A, L45R, V46E, R86K, A87P, V92M, L123Q
notes: as for B1
B3: VHH213_Hu07 VHH-Fc antibody (human IgG4 Fc, S228P) (Fc fusion)
chain: B1 chain with Y29F, K71R
notes: as for B1
B4: VHH162_Hu09 VHH-Fc antibody (human IgG4 Fc, S228P) (Fc fusion)
chain: DVQLVESGGGLVQPGGSLRLSCAASGYSYRTQCLGWYRQAPGKQREAVATISGGGTSTYYSDSVKGRFTISQDNSKTTVYLQMNSLRAEDTAVYYCAAGLSVLGSWCHGGSSYEYTYSGQGTLVTVSS[sequence of human IgG4 Fc with S228P (EU numbers) omitted]
notes: as for B1
B5: VHH162_Hu08 VHH-Fc antibody (human IgG4 Fc, S228P) (Fc fusion)
chain: B4 chain with A49S, S75A
notes: as for B1
B6: VHH162_Hu11 VHH-Fc antibody (human IgG4 Fc, S228P) (Fc fusion)
chain: B4 chain with D1E, A98K
notes: as for B1

Columns and labels:
[1] = biological target: T1, human IL-36R full-length protein stably …; test: FACS, CHO-K1 cells overexpressing human IL-36R
[2] = biological target: T1, human IL-36R full-length protein stably …; test: FACS, CHO-K1 cells overexpressing human IL-36R; remark: listed apart in the source
[3] = biological target: T2, IL-36R on human skin squamous cell line …; test: cell-based or functional assay
[4] = biological target: T1, human IL-36R full-length protein stably …; test: FACS, CHO-K1 cells overexpressing human IL-36R; remark: listed apart in the source
[5] = biological target: T3, Human IL-36R protein (His + Avi Tag), …; test: SPR (Biacore 8K), antibody captured by anti-human IgG Fc, IL-36R as analyte

Binder	EC50 [1]	Maximum MFI [1]	EC50 [2]	Maximum MFI [2]	IL-36α-induced A431 IL-8 secretion IC50 [3]	EC50 [4]	Maximum MFI [4]	Kd [5]	koff [5]	kon [5]
B1	0.41 nM	7670 MFI	0.4 nM	7070 MFI						
B2			0.57 nM	6920 MFI						
B3	0.53 nM	7780 MFI			0.13 nM	0.97 nM	7400 MFI	8.26 nM	9.39e-05 s⁻¹	11400 M⁻¹ s⁻¹
B4			0.48 nM	5340 MFI						
B5			0.66 nM	6010 MFI						
B6	0.63 nM	6950 MFI			0.14 nM	0.88 nM	6210 MFI	31.1 nM	0.000146 s⁻¹	4700 M⁻¹ s⁻¹
